In general, Kd refers to the constant that tells how readily two partners part at equilibrium. High values mean weaker binding, low ones tighter binding.

Experiment [1] addresses T1, extracellular domains of the dimeric IL-2 receptor (IL-2Rβγ) (UniProt P14784 27-240; P31785 23-262).
T1 construct: IL-2 receptor β chain, extracellular domain; IL-2 receptor γ chain (common γ chain), extracellular domain
T1 sequence (looked up) 1: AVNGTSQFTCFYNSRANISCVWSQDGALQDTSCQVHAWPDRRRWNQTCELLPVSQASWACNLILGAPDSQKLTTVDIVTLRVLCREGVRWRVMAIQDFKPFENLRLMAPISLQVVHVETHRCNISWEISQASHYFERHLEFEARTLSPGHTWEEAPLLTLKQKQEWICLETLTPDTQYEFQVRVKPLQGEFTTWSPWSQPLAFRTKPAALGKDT
T1 sequence (looked up) 2: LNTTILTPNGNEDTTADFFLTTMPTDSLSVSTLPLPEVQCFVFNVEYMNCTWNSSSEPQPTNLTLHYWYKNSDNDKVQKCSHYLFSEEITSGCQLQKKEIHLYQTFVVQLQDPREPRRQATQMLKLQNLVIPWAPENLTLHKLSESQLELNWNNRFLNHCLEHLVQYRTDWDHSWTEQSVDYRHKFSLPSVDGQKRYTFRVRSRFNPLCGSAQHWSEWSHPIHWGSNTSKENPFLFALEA
Nature of the experiment: SPR; BIAcore8K; IL-2 and PEGylated IL-2 variants against the extracellular domains of the α, β, αβγ and βγ subunits of IL-2R; the shown text does not say which partner was immobilised or give buffer and temperature. Particulars: both partners purified. For orientation: SPR reads the build-up and loss of mass on a sensor chip optically.

Experiment [2] concerns the target T2, extracellular domains of the trimeric IL-2 receptor (IL-2Rαβγ) (UniProt P01589 22-240; P14784 27-240; P31785 23-262).
T2 sequence (looked up) 1: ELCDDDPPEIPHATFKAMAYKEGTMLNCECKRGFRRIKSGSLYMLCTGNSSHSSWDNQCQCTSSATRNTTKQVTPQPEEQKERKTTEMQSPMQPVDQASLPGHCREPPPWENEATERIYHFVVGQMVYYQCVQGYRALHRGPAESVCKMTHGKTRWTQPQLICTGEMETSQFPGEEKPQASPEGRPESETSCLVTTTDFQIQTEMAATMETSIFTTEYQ
T2 sequence (looked up) 2: T1 sequence (looked up) 1
T2 sequence (looked up) 3: T1 sequence (looked up) 2
The experiment is described as follows: cell-based or functional assay.

The target of experiment [3] is T1, extracellular domains of the dimeric …. The experiment is described as follows: cell-based or functional assay.
Experiment [4] addresses T2, extracellular domains of the trimeric …. Nature of the experiment: SPR; BIAcore8K; IL-2 and PEGylated IL-2 variants against the extracellular domains of the α, β, αβγ and βγ subunits of IL-2R; the shown text does not say which partner was immobilised or give buffer and temperature. Conditions: both partners purified.
Experiment [5] addresses T3, extracellular domain of the IL-2 receptor β chain (IL-2Rβ) (UniProt P14784 27-240).
T3 construct: IL-2 receptor β chain, extracellular domain
T3 sequence (looked up): T1 sequence (looked up) 1
Described as above. Conditions: both partners purified.

Experiment [6] addresses T4, extracellular domain of the IL-2 receptor α chain (IL-2Rα, CD25) (UniProt P01589 22-240).
T4 construct: IL-2 receptor α chain (CD25), extracellular domain; also called α subunit
T4 sequence (looked up): T2 sequence (looked up) 1
The description is as above. Particulars: both partners purified.

For experiment [7], the target named is T5, mouse IL-2Rα extracellular domain (mouse, UniProt P01590 22-236).
T5 construct: interleukin-2 receptor subunit alpha (CD25), mouse, extracellular domain; also called CD25; α subunit of the mouse IL-2 receptor; source: bought: Sinobiological; not shown: 6xHis, C-terminal, kept
T5 sequence (looked up): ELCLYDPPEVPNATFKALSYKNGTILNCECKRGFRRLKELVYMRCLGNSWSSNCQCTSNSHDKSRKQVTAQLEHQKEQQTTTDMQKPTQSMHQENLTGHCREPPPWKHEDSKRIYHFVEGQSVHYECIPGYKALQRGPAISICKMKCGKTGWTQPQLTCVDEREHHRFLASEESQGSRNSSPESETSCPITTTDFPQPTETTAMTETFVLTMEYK
Nature of the experiment: SPR; BIAcore8K; extracellular domain of mouse IL-2Rα; His-tagged CD25 immobilised by amine coupling; 25 °C; 10 mM HEPES, 150 mM NaCl, 3 mM EDTA, 0.05% Surfactant P, pH 7.4; flow 30 μl/min, contact 120 s, dissociation 600 s. Conditions: both partners purified.

B1: D20-5K (IL-2 with 5K PEG conjugated at Asp20) (ligand)
chain: not shown
modifications: Nε-2-azideoethyloxycarbonyl-L-lysine (NAEK) at position 20, conjugated with DBCO-tethered PEG of 5 kDa
notes: interleukin-2; residues chosen on PDB 2ERJ; The new residue is written as K because NAEK is a lysine derivative; source: E. coli OrigamiB (DE3) containing pSURAR-YAV, NAEK incorporated at an amber codon, conjugated with DBCO-PEG, purified
Consider B1, for which the Kd in experiment [1] lay in the range of 149 to 213 nM.

B2: Y45-20K (IL-2 with 20K PEG conjugated at Tyr45) (ligand)
chain: not shown
modifications: Nε-2-azideoethyloxycarbonyl-L-lysine (NAEK) at position 45, conjugated with DBCO-tethered PEG of 20 kDa by copper-free click reaction
notes: interleukin-2; residues chosen on PDB 2ERJ; The new residue is written as K because NAEK is a lysine derivative; also called not-α IL-2; not-α IL-2 PEGylate; source: E. coli OrigamiB (DE3) containing pSURAR-YAV, NAEK incorporated at an amber codon, conjugated with DBCO-PEG, purified
Turning to B2, in experiment [2], the “EC50 of STAT5 phosphorylation (pSTAT5, flow cytometry, 30 min stimulation) in mouse Treg cells” value was determined as 1.12 µg mL^−1. Besides, the “EC50 of STAT5 phosphorylation (pSTAT5, flow cytometry, 30 min stimulation) in mouse CD8+ T cells” value in experiment [3] came to 6.83 µg mL^−1. The Kd in experiment [4] is 38.4 nM. Also, the “fold reduction of affinity versus wild-type IL-2” value was determined as 800 fold in experiment [4], 16.8 fold in experiment [1] and 2.3 fold in experiment [5].

B3: D20-20K (IL-2 with 20K PEG conjugated at Asp20) (ligand)
chain: not shown
modifications: Nε-2-azideoethyloxycarbonyl-L-lysine (NAEK) at position 20, conjugated with DBCO-tethered PEG of 20 kDa by copper-free click reaction
notes: interleukin-2; residues chosen on PDB 2ERJ; The new residue is written as K because NAEK is a lysine derivative; also called not-β IL-2; not-β IL-2 variant; source: E. coli OrigamiB (DE3) containing pSURAR-YAV, NAEK incorporated at an amber codon, conjugated with DBCO-PEG, purified
Take B3: the “fold reduction of affinity versus wild-type IL-2” value in experiment [4] was 1200 fold; in experiment [6] it was 10 fold; in experiment [5] it was more than 1000 fold.

B4: D20-10K (IL-2 with 10K PEG conjugated at Asp20) (ligand)
chain: not shown
modifications: Nε-2-azideoethyloxycarbonyl-L-lysine (NAEK) at position 20, conjugated with DBCO-tethered PEG of 10 kDa
notes: as for B1
Molecule B4 gave a Kd in experiment [1] of 149 to 213 nM.

B5: D20-20K (Asp20-conjugated 20K-PEG IL-2) (ligand)
chain: not shown
modifications: Nε-2-azideoethyloxycarbonyl-l-lysine (NAEK) at 20, conjugated with DBCO-PEG 20 kDa
notes: interleukin-2 with Asp20 replaced by NAEK (amber codon) and PEGylated; The new residue is the unnatural lysine derivative NAEK carrying a 20 kDa PEG; K stands for it; also called not-β IL-2 PEGylate; source: E. coli TransB (DE3) with pSURAR-YAV, purified (Ni-NTA, click reaction with DBCO-PEG, Resource S, Superdex 200)
In experiment [7], B5 came in with a Kd of 289 nM.

The values are drawn from PMC12079483, “Reshape the Fates of Treg and CD8+T Cells Through IL‐2Rα by Synergizing Divergent Receptor‐Biased IL‐2 PEGylates” (Advanced Science, 2025).
